Data reported in the supplement of paper PMC3334620.
Whole data set: some 33,000 sequences, median “E-score (-0.5 to 0.5)” near -0.035, cut for the highest 2% near 0.35. The list shows a part of the results.

What follows are sequences tested against T1, Pdr3 (UniProt P33200) (assay: PBM E-score (8-mer binding enrichment) (E-score (-0.5 to 0.5)); higher = stronger / more preferred TF binding; most listed sequences are background and not binding sites). Details: protein concentration: 200 nM; construct: GST-full length.
T1 sequence: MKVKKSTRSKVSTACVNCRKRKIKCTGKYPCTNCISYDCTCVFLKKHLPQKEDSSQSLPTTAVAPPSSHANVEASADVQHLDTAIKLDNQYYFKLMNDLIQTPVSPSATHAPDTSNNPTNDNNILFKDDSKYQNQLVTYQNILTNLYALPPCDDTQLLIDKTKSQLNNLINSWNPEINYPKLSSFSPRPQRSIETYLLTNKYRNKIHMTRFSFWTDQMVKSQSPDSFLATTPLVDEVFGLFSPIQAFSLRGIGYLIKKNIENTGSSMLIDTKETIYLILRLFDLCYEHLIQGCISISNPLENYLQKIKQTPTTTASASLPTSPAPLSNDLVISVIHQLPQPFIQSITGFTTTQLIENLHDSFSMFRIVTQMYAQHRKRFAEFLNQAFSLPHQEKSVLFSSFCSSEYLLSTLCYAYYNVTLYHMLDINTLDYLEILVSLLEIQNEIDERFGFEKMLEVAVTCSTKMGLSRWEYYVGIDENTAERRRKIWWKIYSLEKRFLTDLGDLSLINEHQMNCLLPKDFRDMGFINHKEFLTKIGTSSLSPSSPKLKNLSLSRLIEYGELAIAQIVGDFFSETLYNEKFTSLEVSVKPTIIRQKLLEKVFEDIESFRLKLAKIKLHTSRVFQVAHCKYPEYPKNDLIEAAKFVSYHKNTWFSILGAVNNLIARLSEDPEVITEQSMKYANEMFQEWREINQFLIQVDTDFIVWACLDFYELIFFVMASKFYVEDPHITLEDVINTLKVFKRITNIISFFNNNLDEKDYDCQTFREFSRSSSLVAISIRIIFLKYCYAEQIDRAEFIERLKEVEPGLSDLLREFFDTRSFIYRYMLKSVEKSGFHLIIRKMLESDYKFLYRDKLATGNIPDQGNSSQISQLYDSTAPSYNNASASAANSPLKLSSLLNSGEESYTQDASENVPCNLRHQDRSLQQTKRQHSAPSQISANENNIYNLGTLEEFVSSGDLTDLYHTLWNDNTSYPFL
Method: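 Universal 'all 10-mer' protein binding microarrays (Agilent AMADID 015681) probed with GST-tagged S. cerevisiae TFs (full-length or DBD) made by in vitro transcription/translation (PURExpress), about 100-200 nM. Bound TF was detected with fluorescent anti-GST. Each ungapped 8-mer (which stands for itself and its reverse complement) is scored by the PBM enrichment score (E-score), a modified Wilcoxon-Mann-Whitney statistic from -0.5 to +0.5, computed with the Universal PBM Analysis Suite. Scale: above 0.35 generally sequence-specific binding.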

Row | Sequence | PBM E-score
1 | CCGGCGGA | 0.449
2 | ACCGATAG | 0.0273
3 | CCGGACCG | 0.378
4 | TACAAAGA | -0.0536
5 | AGCAATCC | 0.0514
6 | AGGTCCAA | -0.294
7 | CAGGATAA | -0.02
8 | AACGGATT | 0.334
9 | CAATATTC | 0.0802
10 | CCAGGAAC | -0.0712
11 | ATGCGGGG | 0.0406
12 | CTCATTTA | 0.047
13 | AGACAGTC | -0.0923
14 | AACTGAAG | -0.148
15 | TCAAGGCA | -0.319
16 | GCAATGGC | 0.0501
17 | CCTCGGAG | 0.283
18 | AGCCAGAA | -0.174
19 | CGAATGCG | 0.23
20 | ACTGTCCC | 0.00248
21 | AAGAGGGC | -0.124
22 | TAGTCGCA | 0.0265
23 | CTGATTTC | -0.0616
24 | CAGGGCCA | -0.111
25 | AACGCTAT | -0.102

Row | Sequence | PBM E-score
26 | ACGATCCT | -0.137
27 | CTCAGCCA | -0.0645
28 | TAATAAAA | -0.0293
29 | GCCAAAAC | -0.19
30 | CACACCCG | 0.208
31 | AGGTCAAC | -0.141
32 | CCTGGCCA | -0.107
33 | ATCGTCGA | -0.106
34 | GCTAGAAC | -0.192
35 | CGTCCGCC | 0.218
36 | GATGCGGA | 0.28
37 | CCTGGAAC | -0.0704
38 | GGGTGCAC | -0.0725
39 | CCAGATCA | 0.112
40 | GTCTCTCA | -0.132
41 | ATAATACC | 0.136
42 | CAAATTAG | -0.121
43 | AAATGTTA | -0.0514
44 | GGGCTGCA | 0.0408
45 | GGCTGTAC | -0.0522
46 | ATCGACCC | 0.0438
47 | AAGGATGG | -0.108
48 | GGTAATGA | 0.0594
49 | AGCCCGAA | 0.101
50 | CAAGTCGA | -0.23

Row | Sequence | PBM E-score
51 | CGCACGAA | 0.0474
52 | GACTTCAA | -0.172
53 | CCGGTGTC | 0.202
54 | ACTTGGTG | -0.141
55 | ACAGCGTG | -0.0566
56 | AGAGAACT | -0.0529
57 | AAGCTATG | -0.149
58 | TCGCTCCA | -0.193
59 | GCACAACA | -0.104
60 | ACCACTGC | -0.14
61 | AGGACGCA | 0.0598
62 | GGTCGCTA | 0.0138
63 | GGTTTATA | -0.0112
64 | GATCGTCA | -0.0471
65 | AAGAGCAG | -0.0681
66 | ACTCGGAT | 0.256
67 | AGAGCACA | 0.0122
68 | TACGACCA | -0.175
69 | ACCTATAT | 0.123
70 | AATCGCTC | -0.132
71 | CCGGTAGA | 0.166
72 | AAGTTATG | 0.0432
73 | ATCTACGA | -0.208
74 | GAAGTATC | -0.00803
75 | ACTGGGAA | 0.102

Row | Sequence | PBM E-score
76 | ACGTGAGT | -0.0439
77 | CAACCAGG | -0.201
78 | CAATTAGA | -0.161
79 | CACGTGAC | -0.134
80 | CCATCGGC | 0.124
81 | CTCTTCAC | -0.207
82 | AATAATCA | 0.0372
83 | GCTTTTGA | -0.112
84 | CATCATGG | 0.00142
85 | AGCTCCAG | -0.186
86 | CCGCGATA | 0.216
87 | CATTTTAA | -0.0299
88 | GCACGAGA | -0.00462
89 | GCCGGTTA | 0.0864
90 | AGCGATCC | 0.117
91 | AGCTCCCT | -0.178
92 | GCTCTGGA | 0.114
93 | CAGGCATG | -0.0575
94 | AACGATGT | -0.0606
95 | CAGCGACG | -0.0814
96 | GCTAGACC | -0.188
97 | CATAGAAA | 0.0933
98 | GTTACGTA | -0.385
99 | ATGCAGGA | -0.19
100 | CTTAAGTA | -0.138

Row | Sequence | PBM E-score
101 | CCAATTCA | -0.0433
102 | GGTAAATA | -0.0254
103 | ACGGAGGG | 0.2
104 | CCTGTACA | -0.0365
105 | AGTTACCA | 0.0405
106 | AGCATGGC | 0.0141
107 | CATGTGCA | -0.147
108 | CGCAAGAC | -0.189
109 | GCGGGATA | 0.322
110 | AGGAGACG | -0.262
111 | CCACACAG | 0.0645
112 | ATACATAA | -0.0555
113 | GCCATATA | -0.0189
114 | ACACAAGT | -0.118
115 | TAAGTCCA | -0.0649
116 | ATTCTCTA | -0.127
117 | CCAGATGC | -0.19
118 | GACGCCCC | 0.0316
119 | ATATCAGA | 0.00537
120 | TCCTCCGA | 0.151
121 | GTAGATAA | 0.0873
122 | CGTGTTTC | -0.00811
123 | TCGCCGAA | 0.0457
124 | ATAACCAG | -0.0465
125 | ATCGCCAG | -0.0615

Row | Sequence | PBM E-score
126 | AAGCGTAG | -0.148
127 | AATGAGAT | 0.056
128 | CCAAAGAC | 0.00235
129 | ATTAGGTA | -0.183
130 | GCGCCGCA | 0.151
131 | GCGCATAA | -0.0375
132 | ATCTTACC | 0.0425
133 | GCATAGGA | -0.168
134 | ATCTCCCA | -0.0664
135 | ACTAGGTG | -0.0965
136 | GAAGTGAA | 0.0811
137 | GTCCGCTA | 0.147
138 | AGCGCCCA | -0.204
139 | TGCCTAAA | -0.208
140 | CAACGCTG | -0.0681
141 | AGCGTTTA | -0.272
142 | ACGTCTTA | -0.186
143 | AGAATCTG | -0.048
144 | GCTAAAAA | -0.176
145 | CACGCATA | -0.268
146 | CAGAGTAC | -0.147
147 | CGCTGCCG | 0.136
148 | TAACTAAA | -0.234
149 | GACGGGCC | 0.111
150 | CCGCGGCC | 0.459

Row | Sequence | PBM E-score
151 | ACTGCAAC | -0.226
152 | GCCTAGCA | -0.258
153 | CATCTAAA | -0.0338
154 | AAATGCCT | -0.0833
155 | GACATGTA | 0.0371
156 | GGGGCAAA | 0.0161
157 | GCCGAAGA | 0.0594
158 | CCGGTCAG | 0.245
159 | ATCCGGTC | 0.215
160 | GTCCATAA | -0.139
161 | AATATCCT | -0.0215
162 | GACCGTGC | -0.0484
163 | GTGAGCGA | -0.0743
164 | AGGCTGAA | -0.193
165 | CCGTCTCC | 0.219
166 | CAGGAGCG | -0.12
167 | AAGGGTGA | -0.0622
168 | ACTCGTAT | -0.11
169 | AGAGACCC | -0.00919
170 | CACACTAA | -0.0221
171 | ATTTAGCG | -0.145
172 | ACCACAAC | 0.105
